Measurements taken from patent US20230054458A1 (JIANGSU HENGRUI MEDICINE, published 2023).

Target: human claudin18.2 (Claudin 18.2, Genbank NP_001002026) (human)
Assay: cell-based or functional assay

B1: humanized antibody h1902-5 (antibody, human IgG1, kappa)
heavy: EVQLVQSGAEVKKPGASVKVSCKASGYTFTSYWMHWVRQAPGQRLEWMGMIHPNSGSTNYNEKFKGRVTITRDTSASTAYMELSSLRSEDTAVYYCARLKTGNSFDYWGQGTTVTVSS[not shown - human IgG1 constant region]
light: DIVLTQSPDSLAVSLGERATINCKSSQSLLNSGNQKNYLTWYQQKPGQPPKLLIYWASTRESGVPDRFSGSGSGTDFTLTISSLQAEDVAVYYCQNAYTYPFTFGQGTKLEIKRTVAAPSVFIFPPSDEQLKSGTASVVCLLNNFYPREAKVQWKVDNALQSGNSQESVTEQDSKDSTYSLSSTLTLSKADYEKHKVYACEVTHQGLSSPVTKSFNRGEC
- ADCC effect IC50, FcrR3A-V158-NFAT-RE-Jurkat reporter luminescence, NUGC4 cells with high claudin18.2 expression: 0.0322 µg/mL
- ADCC effect IC50, FcrR3A-V158-NFAT-RE-Jurkat reporter luminescence, NUGC4 cells with low claudin18.2 expression: 0.0355 µg/mL
- ADCC effect IC50, FcrR3A-V158-NFAT-RE-Jurkat reporter luminescence, NUGC4 cells with moderate claudin18.2 expression: 0.03 µg/mL
